# This is one part of the list. Most values come without repeats; read them as rough.
# Columns and labels:
# Assay in all cases: cell count relative to DMSO control; melanoma cells; higher = more viable cells
# Settings in all cases: library dose: standard library concentration; 72 h
# A101D = system: A101D
# A2058 = system: A2058
# A375 = system: A375
# 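Further: cells treated in 1,536-well plates, then fixed and DAPI-stained, with nuclei counted from automated high-throughput microscope images.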
SMILES,cell count (A101D) [%],cell count (A2058) [%],cell count (A375) [%]
"CCN(CC)CCNC(=O)c1c(C)[nH]c(/C=C2\C(=O)Nc3ccc(F)cc32)c1C [sunitinib] + Cc1cc(N2CCOCC2)cc2[nH]c(-c3c(NC[C@@H](O)c4cccc(Cl)c4)cc[nH]c3=O)nc12 [BMS536924] (first compound 2 µM, partner dose 1 µM)",67.1,78.5,79.1
"Cn1cnc2c(F)c(Nc3ccc(Br)cc3Cl)c(C(=O)NOCCO)cc21 [selumetinib] + Cc1nc(Nc2ncc(C(=O)Nc3c(C)cccc3Cl)s2)cc(N2CCN(CCO)CC2)n1 [dasatanib] (first compound 0.075 µM, partner dose 0.02 µM)",68.6,69.7,90.4
"COc1cc([C@@H]2c3cc4c(cc3[C@@H](O[C@@H]3O[C@@H]5CO[C@@H](C)O[C@H]5[C@H](O)[C@H]3O)[C@H]3COC(=O)[C@H]23)OCO4)cc(OC)c1O [etoposide] + CC(=O)O[C@@]12CO[C@@H]1C[C@H](O)[C@@]1(C)C(=O)[C@H](O)C3=C(C)[C@@H](OC(=O)[C@H](O)[C@@H](NC(=O)OC(C)(C)C)c4ccccc4)C[C@@](O)([C@@H](OC(=O)c4ccccc4)[C@H]21)C3(C)C [Docetaxel] (first compound 0.1 µM, partner dose 0.0005 µM)",58.1,7.67,45.4
"COc1cc([C@@H]2c3cc4c(cc3[C@@H](O[C@@H]3O[C@@H]5CO[C@@H](C)O[C@H]5[C@H](O)[C@H]3O)[C@H]3COC(=O)[C@H]23)OCO4)cc(OC)c1O [etoposide] + C=CCNC1=C2C[C@@H](C)C[C@H](OC)[C@H](O)[C@@H](C)/C=C(\C)[C@H](OC(N)=O)[C@@H](OC)/C=C\C=C(/C)C(=O)NC(=CC1=O)C2=O [Tanespimycin] (first compound 0.1 µM, partner dose 0.01 µM)",70.1,52.6,50.3
"C[C@]1(O)C[C@@H](c2nc(-c3ccc4ccc(-c5ccccc5)nc4c3)c3c(N)nccn32)C1 + CO[C@@H]1[C@H](N(C)C(=O)c2ccccc2)C[C@H]2O[C@]1(C)n1c3ccccc3c3c4c(c5c6ccccc6n2c5c31)C(=O)NC4 [Midostaurin] (first compound 2 µM, partner dose 0.4 µM)",77,52.4,71.3
"Cn1cnc2c(F)c(Nc3ccc(Br)cc3Cl)c(C(=O)NOCCO)cc21 [selumetinib] + O=C(Nc1cccc(Cl)c1)Nc1ncc(CCNc2ncnc3ccsc23)s1 [SNS314] (first compound 0.075 µM, partner dose 0.004 µM)",68.6,100,81
"COc1cc([C@@H]2c3cc4c(cc3[C@@H](O[C@@H]3O[C@@H]5CO[C@@H](C)O[C@H]5[C@H](O)[C@H]3O)[C@H]3COC(=O)[C@H]23)OCO4)cc(OC)c1O [etoposide] + Nc1nc(F)nc2c1ncn2[C@@H]1O[C@H](CO)[C@@H](O)[C@@H]1O [fludarabine] (first compound 0.1 µM, partner dose 1 µM)",88.5,76.3,26.5
"C[C@]1(O)C[C@@H](c2nc(-c3ccc4ccc(-c5ccccc5)nc4c3)c3c(N)nccn32)C1 + O=C(O)c1ccc2c(c1)nc(Nc1cccc(Cl)c1)c1ccncc12 [CX4945] (first compound 2 µM, partner dose 2 µM)",87.3,67.4,57.2
"Cn1cnc2c(F)c(Nc3ccc(Br)cc3Cl)c(C(=O)NOCCO)cc21 [selumetinib] + CN(NC(=O)CC(=O)NN(C)C(=S)c1ccccc1)C(=S)c1ccccc1 [STA4783] (first compound 0.075 µM, partner dose 0.03 µM)",61.1,10.2,104
"C[C@]1(O)C[C@@H](c2nc(-c3ccc4ccc(-c5ccccc5)nc4c3)c3c(N)nccn32)C1 + Cn1c(=O)n(-c2ccc(C(C)(C)C#N)cc2)c2c3cc(-c4cnc5ccccc5c4)ccc3ncc21 [NVP-BEZ235] (first compound 2 µM, partner dose 0.02 µM)",67.1,62.7,71
"CCN(CC)CCNC(=O)c1c(C)[nH]c(/C=C2\C(=O)Nc3ccc(F)cc32)c1C [sunitinib] + Cn1nnc2c(C(N)=O)ncn2c1=O [temozolomide] (first compound 2 µM, partner dose 10 µM)",62.5,40.1,96
"COc1cc([C@@H]2c3cc4c(cc3[C@@H](O[C@@H]3O[C@@H]5CO[C@@H](C)O[C@H]5[C@H](O)[C@H]3O)[C@H]3COC(=O)[C@H]23)OCO4)cc(OC)c1O [etoposide] + CC1(C)NC(=O)N(c2ccc([N+](=O)[O-])c(C(F)(F)F)c2)C1=O [nilutamide] (first compound 0.1 µM, partner dose 5 µM)",96.1,95.2,63.3

# Reference: the supplement of paper PMC4604168 (melanoma cell lines)
